In experiment [1] the target is T1, full-length human TREM2 tagged with a 3xFLAG at the C-terminus (TREM2-3xFLAG) (human) (UniProt Q9NZC2).
T1 sequence: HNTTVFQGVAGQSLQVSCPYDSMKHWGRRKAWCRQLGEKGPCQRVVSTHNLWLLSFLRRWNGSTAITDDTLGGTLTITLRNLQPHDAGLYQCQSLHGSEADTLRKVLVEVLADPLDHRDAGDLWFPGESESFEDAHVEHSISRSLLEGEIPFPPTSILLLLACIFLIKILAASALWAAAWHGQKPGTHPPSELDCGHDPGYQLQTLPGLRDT
As to the kind of experiment: co-IP; HEK293 cells transfected with bicistronic plasmids TREM2-3xFLAG + Myc-BRI2 variants; TREM2-3xFLAG precipitated with M2; blot with anti-Myc and anti-human BRI2; three independent transfections.

Experiment [2] has as its target recombinant BRI2-BRICHOS (human) (UniProt Q9Y287). As to the kind of experiment: non-reducing SDS-PAGE and Western blot; eluates of the cell-free pull-down separated under reducing and non-reducing conditions; blot with M2; both purified.
The target in experiment [3] is recombinant BRI2-ECD (human) (UniProt Q9Y287). The description is as above.

Results are given in words; binding and its absence hold for the method and conditions named. For part of these data: Binding seen in cells or lysates may run through a third protein. Some binding calls cover weakened binding; strength is not graded here. For part of these data: Sequences can lack the tags named with a protein.

“Myc-BRI2δ_(80-131), which lacks amino acids 80-131 (from UniProt Q9Y287 1-266)”: the binding entry in experiment [1] is given as “binds”.

With “full-length human BRI2 tagged with a Myc epitope at the N-terminus (Myc-BRI2) (from UniProt Q9Y287 1-266)”, the binding result in experiment [1] was “binds”.

As to “recombinant BRI2-BRICHOS (from UniProt Q9Y287 137-231) (domain or fragment)”, the binding entry in experiment [2] is on record as “binds”.

For “Myc-BRI2_(1-131) (from UniProt Q9Y287 1-131) (domain or fragment)”, the binding result in experiment [1] is “binds”.

In the case of “recombinant BRI2-ECD (from UniProt Q9Y287 76-266) (domain or fragment)”, the binding result in experiment [3] was “binds”.

“Myc-BRI2_(1-80) (from UniProt Q9Y287 1-80) (domain or fragment)”: the binding result in experiment [1] is “no binding”.

The values are drawn from paper PMC10933458.
